Measurements reported in PubChem BioAssay AID1476 (National Center for Advancing Translational Sciences (NCATS), 2009).
Values joined by “and” are separate entries in the source; they are usually repeats but may differ in a detail not shown here. Equal entries are not always repeated. The whole screen tested about 200,000 compounds, of which about 4,500 (2.2%) were called active. Inconclusive means that the source gave no clear call. Such entries were picked first, then a sample of the others. Calls come from the whole dose curve; as a rule, active = well fitted inhibition curve with a large enough effect; inconclusive = small, poorly fitted or top-dose-only effect, or effect the other way; inactive = flat fitted curve, though single readings scatter. Potencies of inconclusive entries are doubtful fits and often do not repeat.
Note: nearly all actives have a fitted effect of over 40% in size.
Potency is the fitted concentration of half-maximal effect; tags give direction and shape of the fitted curve.
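Throughout, for max response, negative = inhibition: plate controls were enzyme without inhibitor for no effect and buffer without enzyme for full effect.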

Each compound was assayed against Cruzipain (Trypanosoma cruzi) (UniProt P25779) (assay: qHTS Assay for Promiscuous and Specific Inhibitors of Cruzain (without detergent)). Details: purified cruzain, Z-FR-AMC fluorescence, no detergent.
UniProt P25779, sequence (P25779 whole entry, looked up): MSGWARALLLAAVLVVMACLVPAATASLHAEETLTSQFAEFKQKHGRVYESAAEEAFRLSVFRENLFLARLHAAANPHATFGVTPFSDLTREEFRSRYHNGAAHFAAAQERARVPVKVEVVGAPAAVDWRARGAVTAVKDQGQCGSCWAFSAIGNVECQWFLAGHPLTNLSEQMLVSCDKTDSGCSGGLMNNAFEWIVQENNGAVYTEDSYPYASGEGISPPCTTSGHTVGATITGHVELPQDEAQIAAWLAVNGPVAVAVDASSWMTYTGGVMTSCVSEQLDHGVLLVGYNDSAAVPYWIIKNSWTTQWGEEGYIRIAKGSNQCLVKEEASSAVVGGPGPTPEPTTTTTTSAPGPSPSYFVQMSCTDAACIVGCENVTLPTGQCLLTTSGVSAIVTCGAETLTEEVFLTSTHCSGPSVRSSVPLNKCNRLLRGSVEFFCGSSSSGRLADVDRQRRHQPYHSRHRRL
Procedure, shortened: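 Purified cruzain at 1.5 nM, pre-incubated 15 min with compound at room temperature in 100 mM sodium acetate pH 5.5, 5 mM DTT, 0.00005% Triton X-100. Reaction started with 2 uM Z-FR-AMC; AMC fluorescence increase over 60 s gives rate.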
`COc1ccccc1OCC(=O)Nc1cc(S(=O)(=O)N2CCCCC2)ccc1N1CCCCC1` was tested, and the Potency was inconclusive: 39.8 µM [inhibitor, single point]. For `O=C(Cn1cc(SCc2ccc(Cl)cc2)c2ccccc21)N1CCOCC1`, the Potency was inconclusive: 25.1 µM [activator, single point] and inconclusive: 31.6 µM [activator, single point]. In the case of `COc1ccc(CNc2ncncc2-c2c(C)noc2C)c(OC)c1`, the max response, negative = inhibition is reported as inactive: 7.25%. With `N#Cc1cc2c(nc1SCc1ccc(Cl)cc1)CCCC2` the Potency was inconclusive: 39.8 µM [inhibitor, single point]. With `O=C(NC(=S)Nc1nc(-c2ccc(Br)cc2)cs1)c1cccnc1` the Potency was active: 3.98 µM. For `N#Cc1c(Cl)c(Cl)c(Cl)c(C#N)c1Cl`, the Potency was inconclusive: 39.8 µM [activator, single point]. `COC(=O)[C@@]1(Cc2ccc(OC)cc2)[C@H]2c3cc(C(=O)N4CCCC4)n(CCc4c[nH]c5cc(F)ccc45)c3C[C@H]2CN1C(=O)c1ccccc1` was tested, and the Potency was inconclusive: 31.6 µM [activator, partial curve]. With `COCCCn1c(SCC(=O)Nc2ccc(OC)cc2)nc2c(sc3ccccc32)c1=O` the max response, negative = inhibition was inactive: -3.31%. For `CCOc1ccc(NC(=O)c2ccc(NC(=O)c3cn4c5c(c(N6CCN(C)CC6)c(F)cc5c3=O)OCC4C)cc2)cc1` (configuration not stated), the Potency was inconclusive: 25.1 µM [activator, single point]. With `COc1ccccc1N=c1oc2cc(O)ccc2cc1C(N)=O` the Potency was inconclusive: 39.8 µM [activator, single point]. `COc1ccc(/C=N/NC(=O)c2nn(-c3ccc(Cl)cc3)c(=O)c3c(N)scc23)cc1` was tested, and the Potency was active: 12.6 µM. `CCOc1ccccc1C(=O)N1CCc2cc(OC)c(OC)cc2C1COc1ccc(OC)cc1` (configuration not stated) was tested, and the Potency was inconclusive: 31.6 µM [activator, single point]. In the case of `O=C1c2oc3ccccc3c(=O)c2C(c2cccc(Br)c2)N1Cc1ccco1` (configuration not stated), the Potency is reported as inconclusive: 39.8 µM [activator, single point]. `COc1ccc(OC)c(NC(=O)c2cc3cccc(OC)c3oc2=O)c1` was tested, and the max response, negative = inhibition was inactive: -0.797%. In the case of `CCC(C)(C)n1nnnc1C(c1ccc(C)cc1)N1CCN(C(=O)c2ccco2)CC1` (configuration not stated), the Potency is reported as inconclusive: 39.8 µM [activator, single point]. With `CC(C)(C)c1ccc(C(=O)N2CCCC(c3nc4c(nnn4Cc4cccc(F)c4)c(=O)[nH]3)C2)cc1` (configuration not stated) the Potency was inconclusive: 39.8 µM [activator, single point]. For `COc1ccc2cc(CNc3ccc(C)cc3)c(=O)n(CC(=O)Nc3ccc(C)cc3Cl)c2c1`, the max response, negative = inhibition was inactive: -24.9%.
